In PubChem BioAssay AID686978 (National Center for Advancing Translational Sciences (NCATS), 2013):
Hit rate of the full screen: of about 420,000 compounds, about 64,000 (15%) were called active. This list was built around the results that the source calls inconclusive (neither active nor inactive); the mix of calls is not that of the screen. The call rests on the fitted dose curve; in most records, active means well fitted inhibition curve with a large enough effect; inconclusive means small, poorly fitted or top-dose-only effect; inactive means flat fitted curve, though single readings scatter. No potency is given beside an inconclusive call; the fits are too rough.

Assay: qHTS for Inhibitors of human tyrosyl-DNA phosphodiesterase 1 (TDP1): qHTS in cells in absence of CPT; further: nearly all actives have a fitted effect of over 55% in size
Conditions: DT40 Tdp1-/- hTDP1 cells, no CPT, ATP luminescence, 48 h; activity change, negative = growth inhibition: at 46.2 µM (top of the series) unless noted
How it was run: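 Luminescent ATP content (CellTiter-Glo) served as the growth readout. Knockout chicken DT40 cells expressing human TDP1 were exposed to compounds without camptothecin for a minimum 48 hr at 37 °C.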
On the % scale 0 is the no-effect control and ±100 the full control effect; potency means the concentration at half of the fitted maximal effect; tags describe the fitted curve by direction and shape.

Compound | Potency | activity change, negative = growth inhibition
CCc1cc(C(=O)/C=C/c2cc3c(cc2C)OCCO3)c(O)cc1O | active: 11.2 µM | 
CCn1c(SC(=O)NC2CCCCC2)nnc1-c1cccs1 | active: 23.1 µM | 
COC(=O)c1c(NC(=O)CS(=O)(=O)c2ccccc2)sc(C)c1C | active: 20.6 µM | 
CCOc1ccc(NC(=O)N(Cc2cn(CC)c3ccccc23)C2CCCCCC2)cc1 | active: 20.6 µM | 
COc1ccc(CCN(C)C(=O)CCNS(=O)(=O)c2ccccc2C(F)(F)F)cc1OC | inconclusive [inhibitor, single point] | 
CCn1c(Cc2ccccc2)nnc1SCC(=O)NC1CCCC1 |  | inactive: 2.7%
Cc1cc(/C=C2/C(=N)N3C(c4ccccc4)=CSC3=NC2=O)c(C)n1-c1ccc(Cl)cc1 |  | inactive: 3.22%
O=C(NC(=S)Nc1ccccc1Cl)C1CC1 |  | inactive: 10.7%
CSc1ccccc1NC(=O)Nc1ccc(F)c(Cl)c1 | inconclusive [inhibitor, single point] | 
CC(C)CNC(=S)NC(=O)c1ccccc1Cl | inconclusive [inhibitor, single point] | 
CCOC(=O)c1c(NC(=O)COC(=O)c2nc(Cl)ccc2Cl)sc(C(=O)NC)c1C |  | inactive: -26.5%
CN1C(=O)Cc2cc(S(=O)(=O)NCc3ccc(Cl)cc3)ccc21 | inconclusive [inhibitor, single point] | 
CC(C)[C@H](NC(=O)c1ccco1)C(=O)Nc1ccc(OC(F)F)cc1 |  | inactive: -6.1%
Cc1ccc(C(=O)Nc2ccc3c(c2)OCCO3)cc1S(=O)(=O)N1CCOCC1 | inconclusive [inhibitor, single point] | 
O=C(CCc1cccc(Cl)c1)N1CCCC(Nc2ccccc2)C1 (stereo not drawn) | inconclusive [inhibitor, single point] | 
NC(=O)c1ccc(NC(=O)COC(=O)/C=C/c2cn(-c3ccccc3)nc2-c2cccnc2)cc1 | inconclusive [inhibitor, partial curve] | 
CCCCCCCCCCCCCCCCCCN(CCCCCCCCCCCCCCCCCC)c1ccccc1 |  | inactive: 3.56%
O=C1C(=C(c2ccccc2)c2ccccc2)Nc2ccccc21 | active: 14.6 µM | 
O=C(Nc1nccs1)[C@@H]1CC=C[C@@H]2CCN(Cc3ccc(Cl)c(Cl)c3)C(=O)[C@@H]21 | inconclusive [inhibitor, single point] | 
O=C(Nc1cccc(-c2cccc(Cl)c2)c1)C1CCN(Cc2ccon2)CC1 | active: 29.1 µM | 
Cc1cccc(-c2nc(CSCC(=O)N3CCN(c4ccccn4)CC3)c(C)o2)c1 | inconclusive [inhibitor, single point] | 
O=C(Nc1ccccc1Cl)N1CCN(C/C=C/c2ccccc2)CC1 | inconclusive [inhibitor, single point] | 
COc1cc(OC)cc(C(=O)NCCSCc2ccc(Cl)cc2)c1 | inconclusive [inhibitor, partial curve] | 
COc1ccc(N2CCN(CCCNC(=O)c3cnn(-c4ccc(C)cc4)c3-n3cccc3)CC2)cc1 | active: 5.17 µM | 
O=C(CSc1nnnn1-c1cccc2ccccc12)Nc1ccc(N2CCOCC2)c(Cl)c1 | inconclusive [inhibitor, single point] | 
CC(=O)Nc1ccc(S(=O)(=O)NC(C(=O)O)C(C)O)cc1 (stereo not drawn) |  | inactive: 26%

Compound | Potency | activity change, negative = growth inhibition
COc1ccc(C=C2CS(=O)(=O)CC(=Cc3ccc(OC)cc3)C2=O)cc1 | active: 1.3 µM | 
O=C(c1csnn1)N1CCC2(CC1)CCN(c1ccncc1)CC2 | inconclusive [inhibitor, single point] | 
O=C(NCc1ccccc1)C(=O)NCC1OCCN1S(=O)(=O)c1ccc2c(c1)OCCO2 (stereo not drawn) |  | inactive: -18.2%
CCOC(=O)c1ccc(NC(=S)N(CCCN2CCN(CC)CC2)Cc2cccs2)cc1 | active: 18.4 µM | 
O=C(NCc1ccccc1)C(=O)NCC(c1cccs1)S(=O)(=O)c1cccs1 (stereo not drawn) |  | inactive: -25.8%
CSc1ccccc1NC(=O)CN(C)CC(=O)Nc1c(F)cccc1F |  | inactive: -28.5%
CC(C)C(=O)NCC(c1ccc2c(c1)OCO2)N1CCOCC1 (stereo not drawn) |  | inactive: 3.34%
Cc1cc(C)cc(C(=O)NCCc2csc(-c3ccc(C(F)(F)F)cc3)n2)c1 | active: 20.6 µM | 
COc1ccc(S(=O)(=O)N2CCCCCC2)cc1C(=O)OCc1cccc(OC)c1OC |  | inactive: -16.1%
CCc1ccccc1S(=O)(=O)Cc1ccc(C(=O)NCCc2ccc(C)cc2)o1 | active: 29.1 µM | 
Cc1cc(C)n2nc(C(=O)NCc3ccco3)nc2n1 |  | inconclusive: -32.9% [inhibitor]
OCCNc1ncnc2c1sc1nc(N3CCOCC3)c3c(c12)CCC3 | active: 14.6 µM | 
CCC(Sc1nnc2c(n1)[nH]c1ccccc12)C(=O)Nc1ccccc1OC (stereo not drawn) | active: 20.6 µM | 
COc1ccc(NC(=S)NNc2ccc([N+](=O)[O-])cc2S(=O)(=O)Nc2ccc(C)cc2C)cc1 | inconclusive [inhibitor, partial curve, poor fit] | 
O=C(CCC1CCCC1)NCCCNC(=O)CCC1CCCC1 |  | inactive: -2.01%
COc1ccc(N2CCN(C(CNC(=O)c3ccc4c(c3)OCO4)c3ccco3)CC2)cc1 (stereo not drawn) | inconclusive [inhibitor, single point] | 
CCN(CC)CCN(Cc1cc2cccc(C)c2[nH]c1=O)C(=S)Nc1ccccc1 | inconclusive [inhibitor, single point] | 
Cc1ccc(Cn2c(=O)n(CCCCC(=O)NCc3ccc4c(c3)OCO4)c(=O)c3ccccc32)cc1 | inconclusive [inhibitor, single point] | 
CC(Sc1nc2cc([N+](=O)[O-])ccc2n1-c1cccc(C(F)(F)F)c1)C(=O)NC(N)=O (stereo not drawn) | inconclusive [inhibitor, single point] | 
Cc1ccc(S(=O)(=O)N2CCN(C(=O)c3ccccc3OCc3c(C)noc3C)CC2)cc1C | inconclusive [inhibitor, partial curve] | 
CC1CCN(C(=O)COC(=O)CNC(=O)C23CC4CC(CC(C4)C2)C3)CC1 |  | inactive: 0.791%
O=C(CN1C(=O)c2ccccc2S1(=O)=O)Nc1ccc(S(=O)(=O)Nc2ncccn2)cc1 |  | inactive: -5.66%
CCOC(=O)c1c(-c2ccccc2)oc2ccc(O)c(CN3CCOCC3)c12 | active: 23.1 µM | 
O=C(COC(=O)C12CC3CC(CC(C3)C1)C2)Nc1nccs1 |  | inactive: -2.37%
CCCC(=O)Nc1nnc(SCC)s1 |  | inactive: -16%
CCOc1ccc(/C=C2/SC(=S)N(n3c(C)ccc3C)C2=O)cc1 | inconclusive [inhibitor, single point] | 

Compound | Potency | activity change, negative = growth inhibition
COc1ccccc1N1CCN(C(=O)CCC(=O)N2CCN(c3ccccc3OC)CC2)CC1 | inconclusive [inhibitor, single point] | 
CC1=C(C)C(OCCBr)N(c2cc(O)c(Cl)cc2F)C1=O (stereo not drawn) |  | inactive: -10.1%
Cc1cccc2sc(NC(=O)CCNS(=O)(=O)c3cccs3)nc12 | active: 25.9 µM | 
Cc1ccc(-c2cc(C(=O)NCC3(N(C)C)CCCCC3)c3ccccc3n2)o1 | inconclusive [inhibitor, single point] | 
O=C(O)c1ccccc1N/N=C\c1ccnc2ccccc12 | inconclusive [inhibitor, full curve] | 
CC(C)(C)c1ccc(-c2n[nH]c(=S)n2C2CCCC2)cc1 | active: 16.4 µM | 
CCCCN(CCCNC(=O)c1ccc(CS(=O)(=O)c2c(Cl)cccc2Cl)o1)Cc1ccccc1 | inconclusive [inhibitor, single point] | 
CCCCn1cc(S(=O)(=O)c2ccc(OC)cc2)c(=O)c2cc(F)c(N3CCOCC3)cc21 | inconclusive [inhibitor, single point] | 
CC(C)Oc1ccc(C(=O)Nc2ccc3c(c2)n(C)c(=O)n3C)cc1 |  | inactive: -21.5%
COc1cc(C(=O)COC(=O)C2CCN(c3ccc(C(F)(F)F)cn3)CC2)ccc1OC(F)F |  | inactive: -26.8%
CC(NC(=O)CCC1COc2ccccc2O1)c1ccccc1 (stereo not drawn) |  | inactive: -3.4%
COc1ccc(CCNC(=O)CCc2c(C)nc3c4cccnc4nn3c2C)cc1OC |  | inactive: 1.33%
Cc1ccc(-c2nc(N)sc2CC(=O)OCC(=O)NCCC(C)C)cc1 |  | inactive: -12.4%
CCN1C(=O)S/C(=C\c2ccc(N3CCOCC3)cc2C)C1=O | active: 16.4 µM | 
COc1ccccc1NC(=O)N1CCN(Cc2nc3ccc(C)cc3o2)CC1 |  | inactive: -21.4%
Cc1nnsc1S(=O)(=O)Cc1ccccc1Cl |  | inactive: 1.81%
NC(=O)c1ccsc1NC(=O)c1ccco1 |  | inactive: -9.46%
COc1ccc(S(=O)(=O)CCC(=O)O)cc1 |  | inactive: -11.5%
O=C(CNCC1CCCO1)Nc1ccccc1N1CCCCCC1 (stereo not drawn) |  | inconclusive: -30.4% [inhibitor]
Cc1cccc(C)c1NC(=O)COC(=O)C1Cc2ccccc2CN1C(=O)c1ccccc1 (stereo not drawn) | inconclusive [inhibitor, single point] | 
O=C(Nc1cccc(Cl)c1)c1cc(S(=O)(=O)N2CCCCC2)c[nH]1 |  | inactive: 3.97%
CCN(CC)CCCNC(=O)c1ccc(N2CCCCC2)c(NS(=O)(=O)c2ccc(C)cc2)c1 | inconclusive [inhibitor, single point] | 
COc1ccc(NC(=O)c2cc(C3CCCCN3C(=O)c3ccc(Cl)cc3)on2)c(C)c1 (stereo not drawn) | inconclusive [inhibitor, single point] | 
CSCCC(NC(=O)COc1ccccc1)C(=O)N1CCCC(C(F)(F)F)C1 (stereo not drawn) |  | inactive: -25.4%
CC(=O)Nc1ccc(S(=O)(=O)N2CCN(Cc3cccc([N+](=O)[O-])c3)CC2)cc1 | active: 23.1 µM | 
CC(C)S(=O)(=O)N1CCCC(C(=O)c2cccc(Cl)c2)C1 (stereo not drawn) | inconclusive [inhibitor, single point] | 
